The record followed here is patent US4076815A, “Quinoxaline compound and composition, process for preparing compound, and method of combatting cholera therewith” (Istituto Chemioterapico Italiano, S.p.A., priority 1977, dated 1978).

The structures appear in SMILES notation.

A short description of data set [1]: Acute toxicity in female mice. It is filed as in vivo, mouse. To be noted: endoperitoneal, 2000 mg/kg.
Data set [2] in a line: Teratogenetic study, male and female mice and rats (summary). To be noted: either group.
Data set [3] in a line: Teratogenetic study, mouse. To be noted: 250 mg/kg/day oral.
Data set [4] can be described thus: Subacute toxicity in female rats, gastric gavage 21 days. To be noted: 2 g/kg/day, 5 animals, HS.
The nature of data set [5]: Chronic toxicity in the female mouse, gastric gavage 18 weeks. The conditions noted are these: for Body Weight (m ± SE) Termination: 18 weeks; for Fresh Organ-to-Body Weight Ratio, Kidneys / Fresh Organ-to-Body Weight Ratio, Liver: m ± SE, 4 animals; for SGOT: mean of 6 animals, 24 hours after last dose.
Another data set in a line: Teratogenetic study, rat. To be noted: 250 mg/kg/day oral.
Data set [6] can be described thus: Toxicity of CO-2 in the same manner as for CO-1. The conditions noted are these: same manner as described for CO-1.

With `Nc1nccc(C=Cc2c[n+]([O-])c3ccccc3[n+]2[O-])n1` [CO-1, 2-[2-(2-amino-4-pyrimidinyl)ethenyl]-quinoxaline 1,4-dioxide], in data set [1], the “Dead/Treated Animals after 1 day” value is on record as 6/6 and the “Dead/Treated Animals after 7 days” value was 6/6. Further, in data set [2], the malformations result is “No malformations in either group were observed”. For the same compound, the “No. of Fetuses with Malformations” value in data set [3] worked out at 0. Moreover, in data set [3] (result might be casual, should be repeated), the “Pregnant/Treated Animals” value was 3/10. For the same compound, the “Average Percent Weight of Fresh Organs (m ± SE), Liver” value in data set [4] turned out to be 4.54 ± 0.10%. In data set [5] (250 mg/kg/day), the “Body Weight (m ± SE) Termination” value worked out at 26.7 ± 0.7 g; the “Fresh Organ-to-Body Weight Ratio, Kidneys” value stood at 0.87 ± 0.08; the “Fresh Organ-to-Body Weight Ratio, Liver” value was 4.57 ± 0.25; the SGOT was determined as 118 Units/ml. Also, the “Body Weight (m ± SE) Start” value in data set [5] (250 mg/kg/day, baseline) is recorded as 27.3 ± 0.5 g. In data set [5] (500 mg/kg/day), the “Body Weight (m ± SE) Termination” value was determined as 30.0 ± 0.7 g; the “Fresh Organ-to-Body Weight Ratio, Kidneys” value stood at 1.07 ± 0.04; the “Fresh Organ-to-Body Weight Ratio, Liver” value is 4.66 ± 0.91; the SGOT worked out at 159 Units/ml. Also, in “Teratogenetic study, rat”, the “No. of Fetuses with Malformations” value worked out at 0 and the “Pregnant/Treated Animals” value was 7/10.
`Cc1cc(C=Cc2c[n+]([O-])c3ccccc3[n+]2[O-])nc(N)n1` [CO-2, 2-[2-(2-amino-6-methyl-4-pyrimidinyl)ethenyl]-quinoxaline 1,4-dioxide]: in data set [6], the “toxicity compared with CO-1” value was “Comparable results are obtained”.
